In the supplement of paper PMC12423691:
The other results are listed elsewhere or left out. Binding of human transcription factors and regulators to the viral nucleoprotein by AlphaScreen, crude cell-free proteins, amounts not normalised, one pass. Fold of the Venus control; higher = more signal. No active / inactive call. Single-pass screen; sequences are the whole Swiss-Prot entries looked up by name.

B1: RFXANK, O14593 (protein)
chain: MELTQPAEDLIQTQQTPASELGDPEDPGEEAADGSDTVVLSLFPCTPEPVNPEPDASVSSPQAGSSLKHSTTLTNRQRGNEVSALPATLDSLSIHQLAAQGELDQLKEHLRKGDNLVNKPDERGFTPLIWASAFGEIETVRFLLEWGADPHILAKERESALSLASTGGYTDIVGLLLERDVDINIYDWNGGTPLLYAVRGNHVKCVEALLARGADLTTEADSGYTPMDLAVALGYRKVQQVIENHILKLFQSNLVPADPE
B2: ZNF655, Q8N720 (protein)
chain: MEEIPAQEAAGSPRVQFQSLETQSECLSPEPQFVQDTDMEQGLTGDGETREENKLLIPKQKISEEVHSYKVRVGRLKHDITQVPETREVYKSEDRLERLQEILRKFLYLEREFRQITISKETFTSEKNNECHEPEKSFSLDSTIDADQRVLRIQNTDDNDKYDMSFNQNSASGKHEHLNLTEDFQSSECKESLMDLSHLNKWESIPNTEKSYKCDVCGKIFHQSSALTRHQRIHTREKPYKCKECEKSFSQSSSLSRHKRIHTREKPYKCEASDKSCEASDKSCSPSSGIIQHKKIHTRAKSYKCSSCERVFSRSVHLTQHQKIHKEMPCKCTVCGSDFCHTSYLLEHQRVHHEEKAYEYDEYGLAYIKQQGIHFREKPYTCSECGKDFRLNSHLIQHQRIHTGEKAHECNECGKAFSQTSCLIQHHKMHRKEKSYECNEYEGSFSHSSDLILQQEVLTRQKAFDCDVWEKNSSQRAHLVQHQSIHTKENS
B3: MTA1, Q13330 (protein)
chain: MAANMYRVGDYVYFENSSSNPYLIRRIEELNKTANGNVEAKVVCFYRRRDISSTLIALADKHATLSVCYKAGPGADNGEEGEIEEEMENPEMVDLPEKLKHQLRHRELFLSRQLESLPATHIRGKCSVTLLNETESLKSYLEREDFFFYSLVYDPQQKTLLADKGEIRVGNRYQADITDLLKEGEEDGRDQSRLETQVWEAHNPLTDKQIDQFLVVARSVGTFARALDCSSSVRQPSLHMSAAAASRDITLFHAMDTLHKNIYDISKAISALVPQGGPVLCRDEMEEWSASEANLFEEALEKYGKDFTDIQQDFLPWKSLTSIIEYYYMWKTTDRYVQQKRLKAAEAESKLKQVYIPNYNKPNPNQISVNNVKAGVVNGTGAPGQSPGAGRACESCYTTQSYQWYSWGPPNMQCRLCASCWTYWKKYGGLKMPTRLDGERPGPNRSNMSPHGLPARSSGSPKFAMKTRQAFYLHTTKLTRIARRLCREILRPWHAARHPYLPINSAAIKAECTARLPEASQSPLVLKQAVRKPLEAVLRYLETHPRPPKPDPVKSVSSVLSSLTPAKVAPVINNGSPTILGKRSYEQHNGVDGNMKKRLLMPSRGLANHGQARHMGPSRNLLLNGKSYPTKVRLIRGGSLPPVKRRRMNWIDAPDDVFYMATEETRKIRKLLSSSETKRAARRPYKPIALRQSQALPPRPPPPAPVNDEPIVIED

target: nucleoprotein N of Crimean-Congo hemorrhagic fever virus; test: AlphaScreen luminescence signal relative to Venus negative control (fold); higher = stronger binding to CCHFV N
Method: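 AlphaScreen binding of cell-free made, FLAG-GST-tagged human transcription factors and regulators (crude translation products) to biotinylated N protein; signal as fold of the FLAG-GST-Venus control. One pass.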

Row | Binder | AlphaScreen luminescence signal
1 | B1 | 1.49
2 | B2 | 1.86
3 | B3 | 2.23
